Reference: the supplement of paper PMC4604168 (melanoma cell lines)
This is one part of the list. Many values rest on one well or one pass, so single values are uncertain.

Tests used:
Test in all cases: cell count relative to DMSO control; melanoma cells; higher = more viable cells
Conditions in all cases: library dose: standard library concentration; 72 h
G361 = system: G361
IPC-298 = system: IPC-298
IST-MEL1 = system: IST-MEL1
LB2518-MEL = system: LB2518-MEL
LOXIMVI = system: LOXIMVI
MEL-HO = system: MEL-HO
MZ2-MEL = system: MZ2-MEL
MeWo = system: MeWo
RPMI7951 = system: RPMI7951
RVH-421 = system: RVH-421
SkMel28 = system: SkMel28
SkMel2 = system: SkMel2
SkMel30 = system: SkMel30
SkMel5 = system: SkMel5
UACC257 = system: UACC257
UACC62 = system: UACC62
WM115 = system: WM115
WM1716 = system: WM1716
WM1745 = system: WM1745
WM3526 = system: WM3526
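Further: cells treated in 1,536-well plates, then fixed and DAPI-stained, with nuclei counted from automated high-throughput microscope images.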

| Structure (SMILES) | cell count (G361) | cell count (IPC-298) | cell count (IST-MEL1) | cell count (LB2518-MEL) | cell count (LOXIMVI) | cell count (MEL-HO) | cell count (MZ2-MEL) | cell count (MeWo) | cell count (RPMI7951) | cell count (RVH-421) | cell count (SkMel28) | cell count (SkMel2) | cell count (SkMel30) | cell count (SkMel5) | cell count (UACC257) | cell count (UACC62) | cell count (WM115) | cell count (WM1716) | cell count (WM1745) | cell count (WM3526) |
| --- | --- | --- | --- | --- | --- | --- | --- | --- | --- | --- | --- | --- | --- | --- | --- | --- | --- | --- | --- | --- |
| CCc1ccc(CCOc2ccc(CC3SC(=O)NC3=O)cc2)nc1 (stereo not given) [pioglitazone] + COc1cc2ncnc(Nc3ccc(Oc4ccccc4)cc3)c2cc1OC [SrcI1] (first compound 10 µM, partner dose 10 µM) | 76.5% | 71.4% | 96.3% | 116% | 77.2% | 91.3% | 72.4% | 82.4% | 38.4% | 118% | 71.2% | 80.3% | 98.6% | 84% | 73.9% | 83.2% | 88.3% | 80.5% | 65.9% | 65.4% |
| CCc1ccc(CCOc2ccc(CC3SC(=O)NC3=O)cc2)nc1 (stereo not given) [pioglitazone] + COc1ccc(COc2ccc(Cc3cnc(N)nc3N)cc2OC)cc1 [GW2580] (first compound 10 µM, partner dose 5 µM) | 83.8% | 88.8% | 99.4% | 90.2% | 92.2% | 100% | 102% | 117% | 91.7% | 98% | 52.4% | 96.7% | 102% | 82.5% | 79% | 113% | 105% | 95% | 77.5% | 94.5% |
| Cc1ccc(NC(=O)c2cccc(N(C)C)c2)cc1NC(=O)c1ccc(O)cc1 + CCN(CC)CCCCNc1ncc2cc(-c3cc(OC)cc(OC)c3)c(NC(=O)NC(C)(C)C)nc2n1 [PD173074] (first compound 10 µM, partner dose 0.5 µM) | 97.8% | 93.2% | 92.9% | 100% | 100% | 80.7% | 85.8% | 89.5% | 75% | 86.6% | 91% | 91.1% | 87.4% | 77.7% | 88.1% | 110% | 99.1% | 125% | 88.7% | 90.1% |
| CC(C)(C)c1cnc(CSc2cnc(NC(=O)C3CCNCC3)s2)o1 + O=C1NC(=O)/C(=C/c2ccc(-c3ccc(F)cc3O)o2)S1 [AS252424] (first compound 0.05 µM, partner dose 5 µM) | 99.1% | 90.7% | 107% | 76.3% | 84.2% | 87.6% | 96% | 95.1% | 57.7% | 92.5% | 82.4% | 78.4% | 108% | 72.8% | 94.3% | 83.5% | 77.1% | 70.9% | 66.8% | 73.9% |
| CN(NC(=O)CC(=O)NN(C)C(=S)c1ccccc1)C(=S)c1ccccc1 + O=S(=O)(c1ccccc1)N(CC(F)(F)F)c1ccc(C(O)(C(F)(F)F)C(F)(F)F)cc1 [T0901317] (first compound 0.03 µM, partner dose 7 µM) | 22.1% | 71.1% | 36.2% | 17% | 64.9% | 72.8% | 118% | 14.9% | 82% | 57.2% | 3.27% | 65.4% | 90.5% | 66.5% | 74.6% | 39% | 17.2% | 77.7% | 36% | 68.3% |
| CCCCCCCCc1ccc(CCC(N)(CO)CO)cc1 [fingolimod] + NC(=O)Nc1cc(-c2cccc(F)c2)sc1C(=O)N[C@H]1CCCNC1 [AZD7762] (first compound 10 µM, partner dose 0.1 µM) | 0.536% | 47.5% | 3.49% | 0.198% | 0.455% | 1.71% | 1.7% | 5.67% | 0.919% | 4.21% | 2.3% | 0.0911% | 11.3% | 56.4% | 55.8% | 14.5% | 6.21% | 10.1% | 12.7% | 10.9% |
| NC(=O)c1ccc(N(C(N)=O)c2c(F)cccc2F)nc1-c1ccc(F)cc1F + CC(=O)O[C@@]12CO[C@@H]1C[C@H](O)[C@@]1(C)C(=O)[C@H](O)C3=C(C)[C@@H](OC(=O)[C@H](O)[C@@H](NC(=O)OC(C)(C)C)c4ccccc4)C[C@@](O)([C@@H](OC(=O)c4ccccc4)[C@H]21)C3(C)C [Docetaxel] (first compound 2 µM, partner dose 0.0005 µM) | 16.8% | 36.9% | 42.6% | 48.8% | 67.9% | 45.2% | 34.4% | 30.3% | 23% | 53.6% | 22.7% | 16.6% | 54.5% | 43.8% | 68.1% | 48.7% | 36.7% | 37.4% | 37.6% | 49.2% |
| Cc1ccc(NC(=O)c2cccc(N(C)C)c2)cc1NC(=O)c1ccc(O)cc1 + CCCCCCCCCCCC1=C(O)C(=O)C=C(O)C1=O [Embelin] (first compound 10 µM, partner dose 6 µM) | 79.3% | 89.6% | 59% | 82.1% | 110% | 75% | 67.2% | 99.4% | 76.1% | 64.4% | 108% | 87.1% | 113% | 99.4% | 86% | 110% | 89.5% | 88.3% | 62.6% | 94.8% |
